According to a collection of fitness landscapes (doi:10.1038/s41467-024-54723-y):
Whole data set: some 18,000 sequences, median “TetR repression strength (sort-seq, GFP reporter)” near 0.23, cut for the highest 2% near 0.68. The list shows a part of the results.

target: TetR (class B, Tn10) (UniProt P04483); test: TetR repression strength (sort-seq, GFP reporter) (relative to tetO2 = 1); higher = stronger repression; settings: E. coli
How it was run: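 Escherichia coli SIG10-MAX cells carried a low-copy plasmid library in which eight operator positions were randomized between a constitutive promoter and sfGFP, and TetR was expressed constitutively. After 5 h of growth at 37 °C in LB with 50 µg/mL chloramphenicol, 10^6 cells were FACS-sorted into 13 fluorescence bins, and each bin was Illumina-sequenced. Repression strength was the top bin index plus one minus the read-weighted mean bin, divided by the value for the unaltered operator. Across three independent transformations, only library members with ≥30 reads in every replicate and a CV ≤0.5 were averaged.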

Sequence of UniProt P04483 (P04483 whole entry): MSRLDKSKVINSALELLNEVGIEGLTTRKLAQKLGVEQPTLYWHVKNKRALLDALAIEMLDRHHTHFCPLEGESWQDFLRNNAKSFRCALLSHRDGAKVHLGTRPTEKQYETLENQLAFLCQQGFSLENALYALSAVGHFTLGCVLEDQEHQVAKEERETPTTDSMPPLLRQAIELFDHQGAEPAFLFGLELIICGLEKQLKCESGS

Point of comparison: TCCCGTAGAGTAGAGGAGA, TetR repression strength 0.442. Against it:
- TCCCGTGGAGTGCCTGAGA — lower, 0.0904
- TCCCCCCGAGTCCCGGAGA — lower, 0.0333
- TCCCCACCAGTGGGGGAGA — lower, 0.225
- TCCCCTACAGTTGAAGAGA — lower, 0
- TCCCAGGAAGTGGCCGAGA — lower, 0.178
- TCCCATCTAGTTTAAGAGA — lower, 0.294
- TCCCCATCAGTTTAGGAGA — lower, 0.119
- TCCCTTTCAGTTCGCGAGA — lower, 0.31
- TCCCGGGTAGTGCACGAGA — lower, 0.183
- TCCCTTCTAGTGGCAGAGA — lower, 0.391
- TCCCACGCAGTGCAAGAGA — lower, 0.363
- TCCCTAGAAGTTCCCGAGA — lower, 0.222
- TCCCTTGAAGTTAGGGAGA — lower, 0.0968
- TCCCTTCGAGTGATTGAGA — higher, 0.73
- TCCCAGCAAGTATCAGAGA — lower, 0.27
- TCCCCCACAGTTCCAGAGA — lower, 0.356
- TCCCCTACAGTGTGGGAGA — lower, 0.16
- TCCCAACTAGTGCAGGAGA — lower, 0.265
- TCCCCATCAGTTCATGAGA — lower, 0.401
- TCCCGGTAAGTTGCGGAGA — lower, 0.294
- TCCCGGACAGTAAGGGAGA — lower, 0.25
- TCCCGTATAGTTGGTGAGA — lower, 0.0867
- TCCCGGATAGTTGTCGAGA — lower, 0.0359
- TCCCGGACAGTCGAGGAGA — lower, 0.212
- TCCCGGTCAGTGTATGAGA — lower, 0.274
- TCCCGCTAAGTCAGGGAGA — lower, 0.138
- TCCCCGAGAGTGATTGAGA — higher, 0.453
- TCCCAGAGAGTAACCGAGA — higher, 0.619
- TCCCCTAGAGTATGTGAGA — lower, 0.301
- TCCCGAGAAGTTTAGGAGA — lower, 0.0283
- TCCCTGGTAGTAAGAGAGA — lower, 0.146
- TCCCGGGAAGTTGTCGAGA — lower, 0.18
- TCCCCTCTAGTGGTCGAGA — lower, 0.244
- TCCCAACCAGTCCCGGAGA — lower, 0.12
- TCCCCCAAAGTGGTGGAGA — lower, 0.321
- TCCCGACGAGTGGCGGAGA — lower, 0.407
- TCCCAAATAGTACAAGAGA — lower, 0.42
- TCCCTAAAAGTTCTAGAGA — lower, 0.185
- TCCCGGTAAGTGTGTGAGA — lower, 0.168
- TCCCGGTGAGTCTACGAGA — lower, 0.0533
- TCCCGAGGAGTTGATGAGA — lower, 0.125
- TCCCTTCTAGTGAGGGAGA — lower, 0.426
- TCCCAGTTAGTCCAAGAGA — lower, 0.366
- TCCCCCGAAGTCACTGAGA — lower, 0.203
- TCCCGGCAAGTCGGTGAGA — lower, 0.0647
- TCCCGTATAGTGCCCGAGA — lower, 0.197
- TCCCACATAGTTGTAGAGA — lower, 0.378
- TCCCGGAAAGTGGGTGAGA — lower, 0.248
- TCCCGCGTAGTGCCCGAGA — lower, 0.0499
- TCCCCGATAGTTAACGAGA — lower, 0.221
- TCCCGTTAAGTCAGGGAGA — lower, 0.208
- TCCCTTTCAGTCGGGGAGA — lower, 0.0806
- TCCCGGGGAGTTAAAGAGA — higher, 0.518
- TCCCATTCAGTCTTTGAGA — lower, 0.228
- TCCCAATTAGTTGGCGAGA — lower, 0.284
- TCCCTTTGAGTCGCAGAGA — lower, 0.386
- TCCCGGGCAGTCTGGGAGA — higher, 1.2
- TCCCGCACAGTCGAGGAGA — lower, 0.404
- TCCCGGCCAGTGTGGGAGA — lower, 0.13
- TCCCCTGGAGTCACCGAGA — higher, 0.476
- TCCCCGTGAGTTGCGGAGA — lower, 0.279
- TCCCACCCAGTGCTTGAGA — lower, 0.305
- TCCCACGTAGTGACAGAGA — lower, 0.181
- TCCCTCTTAGTATATGAGA — lower, 0.301
- TCCCGCTCAGTAGGTGAGA — lower, 0.16
- TCCCGGTTAGTGCCCGAGA — higher, 0.64
- TCCCATCTAGTTCATGAGA — lower, 0.213
- TCCCGCACAGTCCTCGAGA — higher, 0.528
- TCCCATTTAGTATCGGAGA — lower, 0.125
- TCCCGAAGAGTGTCAGAGA — lower, 0.345
- TCCCGATAAGTCTCGGAGA — higher, 0.536
- TCCCCTTTAGTGTGGGAGA — lower, 0.118
- TCCCCGGAAGTTCGAGAGA — lower, 0.0315
- TCCCCTCGAGTAGGGGAGA — lower, 0.151
- TCCCCATGAGTCTTGGAGA — lower, 0.172
- TCCCCGTTAGTTTTGGAGA — lower, 0.104
- TCCCGCATAGTTATTGAGA — lower, 0.197
- TCCCTCTCAGTGATGGAGA — higher, 0.546
- TCCCTATCAGTGATCGAGA — higher, 0.868
- TCCCTGGTAGTTTGGGAGA — lower, 0.0756
- TCCCTCTCAGTTAGAGAGA — higher, 0.726
- TCCCCGTAAGTGCACGAGA — lower, 0.193
- TCCCAGCAAGTAGCAGAGA — lower, 0.198
- TCCCTGCTAGTTACCGAGA — lower, 0.361
- TCCCGAACAGTGCCTGAGA — lower, 0.28
- TCCCTAATAGTGAAGGAGA — lower, 0.101
- TCCCTACAAGTAGTGGAGA — lower, 0.303
- TCCCGAGTAGTTTGTGAGA — lower, 0.152
- TCCCCACTAGTCCAGGAGA — lower, 0.134
- TCCCGCAGAGTGCAGGAGA — lower, 0.195
- TCCCTTTCAGTTAAGGAGA — lower, 0.196
- TCCCAGAGAGTGGTAGAGA — lower, 0.292
- TCCCGTTCAGTGGTTGAGA — lower, 0.416
- TCCCGTCGAGTTTGTGAGA — higher, 0.772
- TCCCTGGGAGTGCAAGAGA — lower, 0.347
- TCCCGAATAGTTGGGGAGA — lower, 0.152
- TCCCCCGAAGTACCAGAGA — lower, 0.207
- TCCCCCCTAGTTACAGAGA — lower, 0.409
- TCCCACCGAGTGGCAGAGA — higher, 0.498
- TCCCGAAAAGTTGGCGAGA — lower, 0.433
- TCCCAAATAGTCAGTGAGA — lower, 0.38
